Measured values taken from the supplement of paper PMC8728848.
This is one part of the list.

Legend:
Test in all cases: glycan array binding signal (z-score within array); higher = stronger binding
Settings in all cases: glycan notation: IUPAC condensed, linker removed; mutation: H84T
Gal6S(b1-4)Glc = molecular target: Gal6S(b1-4)Glc
Procedure, shortened: (§1)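 From the Consortium for Functional Glycomics database, 3228 arrays were curated, keeping only those whose protein sequence was available. Binding is given as a within-array Z-score averaged across arrays sharing a protein sequence and across linkers. Negative Z-scores can be read as non-binding.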

Gal6S(b1-4)Glc6S = molecular target: Gal6S(b1-4)Glc6S
Procedure, shortened: as §1

Gal6S(b1-4)GlcNAc = molecular target: Gal6S(b1-4)GlcNAc
Procedure, shortened: as §1

Gal6S(b1-4)GlcNAc6S = molecular target: Gal6S(b1-4)GlcNAc6S
Procedure, shortened: as §1

GalNAc(a1-3)Gal = molecular target: GalNAc(a1-3)Gal
Procedure, shortened: as §1

GalNAc(a1-3)GalNAc = molecular target: GalNAc(a1-3)GalNAc
Procedure, shortened: as §1

[1] = molecular target: GalNAc(a1-3)GalNAc(b1-3)Gal(a1-4)Gal(b1-4)Glc
Procedure, shortened: as §1

[2] = molecular target: GalNAc(a1-3)GalNAc(b1-3)Gal(a1-4)Gal(b1-4)GlcNAc
Procedure, shortened: as §1

GalNAc(b1-3)Gal = molecular target: GalNAc(b1-3)Gal
Procedure, shortened: as §1

[3] = molecular target: GalNAc(b1-3)Gal(a1-4)Gal(b1-4)GlcNAc
Procedure, shortened: as §1

[4] = molecular target: GalNAc(b1-3)Gal(a1-4)Gal(b1-4)GlcNAc(b1-3)Gal(b1-4)Glc
Procedure, shortened: as §1

[5] = molecular target: GalNAc(b1-3)Gal(a1-6)Gal(b1-4)Glc
Procedure, shortened: as §1

GalNAc(b1-3)GalNAc = molecular target: GalNAc(b1-3)GalNAc
Procedure, shortened: as §1

GalNAc(b1-3)GlcNAc = molecular target: GalNAc(b1-3)GlcNAc
Procedure, shortened: as §1

GalNAc(b1-4)Gal(b1-4)Glc = molecular target: GalNAc(b1-4)Gal(b1-4)Glc
Procedure, shortened: as §1

GalNAc(b1-4)GlcNAc = molecular target: GalNAc(b1-4)GlcNAc
Procedure, shortened: as §1

[6] = molecular target: GalNAc(b1-4)GlcNAc(b1-2)Man
Procedure, shortened: as §1

[7] = molecular target: GalNAc(b1-4)GlcNAc(b1-2)Man(a1-3)[GalNAc(b1-4)GlcNAc(b1-2)Man(a1-6)]Man(b1-4)GlcNAc(b1-4)GlcNAc
Procedure, shortened: as §1

[8] = molecular target: GalNAc(b1-4)GlcNAc(b1-3)GalNAc(b1-4)GlcNAc
Procedure, shortened: as §1

GalNAc(b1-4)GlcNAc6S = molecular target: GalNAc(b1-4)GlcNAc6S
Procedure, shortened: as §1

GalNAc(b1-6)GalNAc = molecular target: GalNAc(b1-6)GalNAc
Procedure, shortened: as §1

GalNAc3S(b1-4)GlcNAc = molecular target: GalNAc3S(b1-4)GlcNAc
Procedure, shortened: as §1

GalNAc3S(b1-4)GlcNAc3S = molecular target: GalNAc3S(b1-4)GlcNAc3S
Procedure, shortened: as §1

[9] = molecular target: GalNAc3S(b1-4)[Fuc(a1-3)]GlcNAc
Procedure, shortened: as §1

GalNAc4S6S(b1-4)GlcNAc = molecular target: GalNAc4S6S(b1-4)GlcNAc
Procedure, shortened: as §1

GalNAc6S(b1-4)GlcNAc = molecular target: GalNAc6S(b1-4)GlcNAc
Procedure, shortened: as §1

Glc(a1-4)Glc = molecular target: Glc(a1-4)Glc
Procedure, shortened: as §1

[10] = molecular target: Glc(a1-4)Glc(a1-4)Glc(a1-4)Glc
Procedure, shortened: as §1

Glc(a1-6)Glc(a1-6)Glc = molecular target: Glc(a1-6)Glc(a1-6)Glc
Procedure, shortened: as §1

[11] = molecular target: Glc(a1-6)Glc(a1-6)Glc(a1-6)Glc
Procedure, shortened: as §1

Glc(b1-4)Glc = molecular target: Glc(b1-4)Glc
Procedure, shortened: as §1

Glc(b1-6)Glc = molecular target: Glc(b1-6)Glc
Procedure, shortened: as §1

GlcA(b1-3)Gal = molecular target: GlcA(b1-3)Gal
Procedure, shortened: as §1

GlcA(b1-3)GlcNAc = molecular target: GlcA(b1-3)GlcNAc
Procedure, shortened: as §1

GlcA(b1-6)Gal = molecular target: GlcA(b1-6)Gal
Procedure, shortened: as §1

[12] = molecular target: GlcA3S(b1-3)Gal(b1-4)GlcNAc(b1-2)Man
Procedure, shortened: as §1

[13] = molecular target: GlcA3S(b1-3)Gal(b1-4)GlcNAc(b1-3)Gal(b1-4)Glc
Procedure, shortened: as §1

[14] = molecular target: GlcNAc(a1-3)Gal(b1-4)GlcNAc
Procedure, shortened: as §1

[15] = molecular target: GlcNAc(a1-4)Gal(b1-3)GlcNAc
Procedure, shortened: as §1

[16] = molecular target: GlcNAc(a1-4)Gal(b1-4)GalNAc
Procedure, shortened: as §1

[17] = molecular target: GlcNAc(a1-4)Gal(b1-4)GlcNAc
Procedure, shortened: as §1

[18] = molecular target: GlcNAc(a1-4)Gal(b1-4)GlcNAc(b1-3)Gal(b1-4)Glc
Procedure, shortened: as §1

[19] = molecular target: GlcNAc(a1-4)Gal(b1-4)GlcNAc(b1-3)Gal(b1-4)GlcNAc
Procedure, shortened: as §1

[20] = molecular target: GlcNAc(a1-4)Gal(b1-4)GlcNAc(b1-3)Gal(b1-4)GlcNAc(b1-3)Gal(b1-4)GlcNAc
Procedure, shortened: as §1

[21] = molecular target: GlcNAc(a1-4)Gal(b1-4)GlcNAc(b1-3)Gal(b1-4)[Fuc(a1-3)]GlcNAc(b1-3)Gal(b1-4)[Fuc(a1-3)]GlcNAc
Procedure, shortened: as §1

B1: Banana lectin (Musa acuminata) (protein)
chain: MNGAIKVGAWGGNGGSAFDMGPAYRIISVKIFSGDVVDGVDVTFTYYGKTETRHYGGSGGTPHEIVLQEGEYLVGMAGEVANYTGAVVLGKLGFSTNKKAYGPFGNTGGTPFSLPIAAGKISGFFGRGGKFLDAIGVYLEPLEHHHHHH
glycan array binding signal (z-score) (Gal6S(b1-4)Glc): -0.166 | glycan array binding signal (z-score) (Gal6S(b1-4)Glc6S): -0.159 | glycan array binding signal (z-score) (Gal6S(b1-4)GlcNAc): -0.19 | glycan array binding signal (z-score) (Gal6S(b1-4)GlcNAc6S): -0.166 | glycan array binding signal (z-score) (GalNAc(a1-3)Gal): -0.188 | glycan array binding signal (z-score) (GalNAc(a1-3)GalNAc): -0.168 | glycan array binding signal (z-score) [1]: -0.184 | glycan array binding signal (z-score) [2]: -0.15 | glycan array binding signal (z-score) (GalNAc(b1-3)Gal): -0.208 | glycan array binding signal (z-score) [3]: -0.177 | glycan array binding signal (z-score) [4]: -0.197 | glycan array binding signal (z-score) [5]: -0.201 | glycan array binding signal (z-score) (GalNAc(b1-3)GalNAc): -0.144 | glycan array binding signal (z-score) (GalNAc(b1-3)GlcNAc): -0.163 | glycan array binding signal (z-score) (GalNAc(b1-4)Gal(b1-4)Glc): -0.142 | glycan array binding signal (z-score) (GalNAc(b1-4)GlcNAc): -0.182 | glycan array binding signal (z-score) [6]: -0.217 | glycan array binding signal (z-score) [7]: -0.175 | glycan array binding signal (z-score) [8]: -0.13 | glycan array binding signal (z-score) (GalNAc(b1-4)GlcNAc6S): -0.199 | glycan array binding signal (z-score) (GalNAc(b1-6)GalNAc): -0.203 | glycan array binding signal (z-score) (GalNAc3S(b1-4)GlcNAc): -0.152 | glycan array binding signal (z-score) (GalNAc3S(b1-4)GlcNAc3S): -0.193 | glycan array binding signal (z-score) [9]: -0.153 | glycan array binding signal (z-score) (GalNAc4S6S(b1-4)GlcNAc): -0.151 | glycan array binding signal (z-score) (GalNAc6S(b1-4)GlcNAc): -0.195 | glycan array binding signal (z-score) (Glc(a1-4)Glc): -0.184 | glycan array binding signal (z-score) [10]: -0.173 | glycan array binding signal (z-score) (Glc(a1-6)Glc(a1-6)Glc): -0.182 | glycan array binding signal (z-score) [11]: -0.205 | glycan array binding signal (z-score) (Glc(b1-4)Glc): -0.134 | glycan array binding signal (z-score) (Glc(b1-6)Glc): -0.184 | glycan array binding signal (z-score) (GlcA(b1-3)Gal): -0.194 | glycan array binding signal (z-score) (GlcA(b1-3)GlcNAc): -0.217 | glycan array binding signal (z-score) (GlcA(b1-6)Gal): -0.183 | glycan array binding signal (z-score) [12]: -0.15 | glycan array binding signal (z-score) [13]: -0.177 | glycan array binding signal (z-score) [14]: 0.003 | glycan array binding signal (z-score) [15]: 0.528 | glycan array binding signal (z-score) [16]: -0.184 | glycan array binding signal (z-score) [17]: -0.046 | glycan array binding signal (z-score) [18]: 0.078 | glycan array binding signal (z-score) [19]: 0.022 | glycan array binding signal (z-score) [20]: 0.547 | glycan array binding signal (z-score) [21]: -0.034
